# According to PubChem BioAssay AID686978 (National Center for Advancing Translational Sciences (NCATS), 2013):
# About 64,000 (15%) of roughly 420,000 compounds were called active. The inconclusive results got no clear call from the source; some entries with a clear call stand among them for comparison. The call rests on the fitted dose curve; in most records, active means well fitted inhibition curve with a large enough effect; inconclusive means small, poorly fitted or top-dose-only effect; inactive means flat fitted curve, though single readings scatter. No potency is given beside an inconclusive call; the fits are too rough.
# Experiment: qHTS for Inhibitors of human tyrosyl-DNA phosphodiesterase 1 (TDP1): qHTS in cells in absence of CPT; further: nearly all actives have a fitted effect of over 55% in size
# Settings: DT40 Tdp1-/- hTDP1 cells, no CPT, ATP luminescence, 48 h
# In short: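 Camptothecin absent (DMSO only). Human TDP1-complemented DT40 knockout cells, 400 cells/well, 37 °C for minimum 48 hr; ATP measured via CellTiter-Glo, 30 min dark incubation, luminescence.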
# [1] = activity change, negative = growth inhibition: at 46.2 µM (top of the series) unless noted
# On the % scale 0 is the no-effect control and ±100 the full control effect; potency means the concentration at half of the fitted maximal effect; tags describe the fitted curve by direction and shape.
smiles,measurement,setting,value
COc1ccc(-n2c(N)c(C(=O)Nc3c(C)n(C)n(-c4ccccc4)c3=O)c3nc4ccccc4nc32)cc1,Potency,[1],"inconclusive [inhibitor, single point]"
CCCc1cc(C(=O)Nc2cccnc2)no1,Potency,[1],inactive
CC(C)c1nn2c(=O)cc(COC(=O)c3ccccc3NC(=O)COc3ccccc3)nc2s1,Potency,[1],"inconclusive [inhibitor, partial curve]"
CCN(CC(=O)Nc1ccccc1OC)C(=O)c1ccc2[nH]c3c(c2c1)CC(C)CC3 (configuration not stated),Potency,[1],"inconclusive [inhibitor, partial curve]"
CCN1CCS/C1=C/C=C/C1=[N+](CC)CCS1,Potency,[1],active: 0.146 µM
Clc1ccc(OCCn2cnc3ccccc32)cc1,Potency,[1],active: 18.4 µM
COc1ccc(/C=N/NC(=O)C2COc3ccccc3O2)cc1OC (configuration not stated),Potency,[1],inactive
COC(=O)c1ccc(C2c3c(-c4ccccc4O)n[nH]c3C(=O)N2Cc2ccncc2)cc1 (configuration not stated),Potency,[1],"inconclusive [inhibitor, single point]"
Cc1cc(N/N=C/c2ccccc2O)nc(N2CCOCC2)n1,Potency,[1],"inconclusive [inhibitor, single point]"
CC1CN(S(=O)(=O)c2ccc(NC(=O)c3cc(-c4ccccc4O)n[nH]3)cc2)CC(C)O1 (configuration not stated),Potency,[1],"inconclusive [inhibitor, single point]"
COc1ccc(-c2nc(CNS(=O)(=O)c3ccc(Br)cc3)cs2)cc1,Potency,[1],"inconclusive [inhibitor, single point]"
CSCCC(C(=O)NC(C)(C)C)n1c(-c2ccc(C)cc2)nc2ccccc21 (configuration not stated),Potency,[1],"inconclusive [inhibitor, single point]"
CCC(=O)N1CCc2cc(OC)c(OC)cc2C1COc1ccccc1OC (configuration not stated),Potency,[1],"inconclusive [inhibitor, single point]"
O=C(CSc1nc(-c2cccc(F)c2)[nH]c1-c1ccccc1)Nc1ccc2c(c1)OCCO2,Potency,[1],active: 11.6 µM
Cc1ccc(NC(=O)Nc2nnc(-c3ccncc3)s2)cc1C,Potency,[1],active: 13 µM
Cc1ccc(S(=O)(=O)Nc2ccccc2C(O)c2ccccc2)cc1 (configuration not stated),Potency,[1],active: 18.4 µM
CCNC(=O)OCC12CC3CC(CC(C3)C1)C2,Potency,[1],"inconclusive [inhibitor, partial curve, poor fit]"
Cc1nnc(NC(=O)CSc2nccn2Cc2ccc(F)cc2)s1,"activity change, negative = growth inhibition",[1],inconclusive: -31.8% [inhibitor]
same,"activity change, negative = growth inhibition",at 46.2 µM (top of the series),inactive: -5.16%
O=C(c1ccccc1)N(Cc1nc2ccccc2c(=O)[nH]1)C1CCCC1,Potency,[1],inactive
CCn1c(=S)[nH]c2c(=O)n(C)c(=O)n(C)c21,Potency,[1],inactive
Cc1ccccc1S(=O)(=O)N1CCN(C)CC1,Potency,[1],inactive
Cc1noc(C)c1-c1ccc2ncnc(N(C)Cc3ccco3)c2c1,Potency,[1],active: 11.6 µM
CCC(CC)C(=O)Nc1c2c(nn1-c1ccc(C)cc1)CS(=O)(=O)C2,Potency,[1],inactive
CCOC(=O)c1c(C)[nH]c(C(=O)CSc2ccc(Cl)cc2)c1C,Potency,[1],"inconclusive [inhibitor, single point]"
COC(=O)c1cc(S(=O)(=O)C(C)C)c(S(C)=O)s1 (configuration not stated),Potency,[1],"inconclusive [inhibitor, single point]"
CC(=O)Nc1ccc(S(=O)(=O)NCCc2cn3ccsc3n2)cc1,Potency,[1],inactive
COc1cc(S(=O)(=O)Nc2ccc(C)cc2)ccc1NC(=O)c1ccncc1,Potency,[1],"inconclusive [inhibitor, single point]"
COc1cc(N=CC2=C(O)c3ccccc3C2=O)cc(OC)c1,Potency,[1],inactive
O=c1[nH]c(/C=C\c2cccnc2)c([N+](=O)[O-])c(=O)[nH]1,Potency,[1],"inconclusive [inhibitor, single point]"
CCOC(=O)C(O)(NC(=O)c1cccnc1)C(F)(F)F (configuration not stated),Potency,[1],inactive
COc1ccc(C2c3[nH]c4ccccc4c3CCN2C(=O)c2ccccc2C(C)=O)c(F)c1 (configuration not stated),Potency,[1],"inconclusive [inhibitor, single point]"
CCc1cc(C(=O)NCc2ccccc2)no1,Potency,[1],inactive
O=C(COC(=O)c1ccc(Cl)nc1)Nc1ccc(S(=O)(=O)N2CCCC2)cc1,Potency,[1],inactive
COc1ccc(N2CCN(C(=S)Nc3ccc(C)cc3C)CC2)cc1,Potency,[1],inactive
O=C(O)c1ccc(COCC(F)(F)F)cc1,Potency,[1],inactive
CN1CCN(c2nc3c(c(=O)n(C)c(=O)n3C)n2CCSc2nnnn2-c2ccccc2)CC1,Potency,[1],inactive
